According to PubChem BioAssay AID1745853 (National Center for Advancing Translational Sciences (NCATS), 2022):
The list shows a part of the results. Shown are side measurements of this screen, not its main read-out; they come without a call.

Assays:
Test in all cases: Primary Screen for Target Class Profiling of Small Molecule Inhibitors of Methyltransferases
[1] = target: Glycine N-methyltransferase (Homo sapiens) (UniProt Q14749); conditions: purified enzyme, MTase-Glo SAH luminescence; measured here: GNMT inhibition; at 40 µM; stronger effect = lower value
How it was run: (§1)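 Each enzyme was reacted with SAM and its substrate, with compounds tested once at 40 uM; SAH formed was read by MTase-Glo luminescence.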

[2] = target: Guanidinoacetate N-methyltransferase (Homo sapiens) (UniProt Q14353); conditions: purified enzyme, MTase-Glo SAH luminescence; measured here: GAMT inhibition; at 40 µM; stronger effect = lower value
How it was run: as §1

[3] = target: Histamine N-methyltransferase (Homo sapiens) (UniProt P50135); conditions: purified enzyme, MTase-Glo SAH luminescence; measured here: HNMT inhibition; at 40 µM; stronger effect = lower value
How it was run: as §1

[4] = target: Nicotinamide N-methyltransferase (Homo sapiens) (UniProt P40261); conditions: purified enzyme, MTase-Glo SAH luminescence; measured here: NNMT inhibition; at 40 µM; stronger effect = lower value
How it was run: as §1

[5] = target: Phenylethanolamine N-methyltransferase (Homo sapiens) (UniProt P11086); conditions: purified enzyme, MTase-Glo SAH luminescence; measured here: PNMT inhibition; at 40 µM; stronger effect = lower value
How it was run: as §1
% is scaled to controls: 0 for no effect and ±100 for the full control effect.

Compound | activity change, negative = inhibition [1] [%] | activity change, negative = inhibition [2] [%] | activity change, negative = inhibition [3] [%] | activity change, negative = inhibition [4] [%] | activity change, negative = inhibition [5] [%]
CCOCCCNC(=O)C1c2c(n(C)c3ccccc23)SCC(=O)N1c1ccc(C(C)C)cc1 (stereo not given) | -0.144 | 1.02 | -1.22 | -5.11 | 1.52
COc1ccccc1CNc1nc2c(S(=O)(=O)c3ccccc3)nnn2c2ccc(Cl)cc12 | -2.14 | 1.03 | 4.32 | 7.47 | 1.07
Cc1ccc2c(c1)c(-n1cccc1)c1n2CC(C)(C(=O)NC2CCCC2)N(CCC2=CCCCC2)C1=O (stereo not given) | -5.75 | -3.6 | -6.99 | -14.3 | -7.51
O=C1CCCCC(C(=O)N2CCCCC2)N1 (stereo not given) | 0.131 | 0.004 | 3.39 | -2.53 | 0.615
O=c1c2nc(Nc3cccnc3)ccc2ncn1-c1ccc(F)cc1F | -20 | -14.3 | -15.7 | -22.1 | -19.8
CC1CN(S(=O)(=O)c2cccc3cnccc23)CCN1 (stereo not given) | 0.403 | 8.26 | 8.54 | -7.55 | 0.916
Cc1ccc(NC(=O)CSc2nnc3n(CC(C)C)c(=O)c4ccccc4n23)cc1 | -4.64 | -5.64 | 10.4 | -30.5 | -0.795
CC1(C(=O)NC2CCCC2)Cn2c(cc3ccccc32)C(=O)N1CCN1CCOCC1 (stereo not given) | 2.96 | 4.13 | 2.42 | 2.6 | -3.45
CN(CC(=O)Nc1ccccc1F)S(=O)(=O)c1ccc2[nH]c3c(c2c1)CCCC3 | -4.85 | -3.27 | 1.44 | -3.69 | -0.94
CCOC(=O)C1=C[C@]2(CC)CCCN3CCc4c(n1c1ccccc41)[C@@H]32 | -12.1 | 7.4 | -13.8 | -1.65 | 5.11
CCn1c(-c2nonc2N)nc2c(C#CCO)ncc(OCCCN)c21 | -0.883 | 6.62 | -6.62 | -33.2 | -5.01
CCC(C(=O)NCc1cccc(C)c1)n1ccc2cc(S(=O)(=O)N3CCCCC3)ccc21 (stereo not given) | -1.25 | 5.16 | -1.09 | 0.232 | -0.295
CCOC(=O)c1cc2n(n1)CC(C)(C(=O)NCCC(C)C)N(CCCc1ccccc1)C2=O (stereo not given) | -3.95 | 4.3 | -3.82 | -5.46 | -8.78
CC(=O)c1cc2c(cc1O)OC(C)(C)C=C2 | -2.25 | -3.37 | 6.64 | -17.5 | -1.42
COC(=O)[C@@H](Cc1cccnc1)NC(=O)[C@@H]1CN(C(=O)c2cccc(F)c2)CCN1C(=O)C1CCCCC1 | -3.44 | -8.76 | -4.23 | -14 | 9.04
COC(=O)NCCNC(=O)c1cccc(-c2ccc(SC)cc2)c1 | -4.57 | -1.57 | 1.22 | -5.98 | -1.15
Cn1cccc1C(=O)N1CC(CO)C2(CCNCC2)C1 (stereo not given) | 1.91 | -0.45 | 0.094 | 2.06 | -19.9
CN1CCC(C(=O)N2CCC3(CC2)CN(C(=O)c2ccc(Cl)cc2)CCO3)CC1 | 0.132 | -0.002 | -4.07 | -0.606 | 2.87
Cc1ccc(Cn2c(=O)c3ccc(C(=O)NC(C)C)cc3n3c(=O)n(C)nc23)cc1 | 2.16 | 0 | 5.74 | 3.25 | 1.58
C[C@]12CC[C@@H]3c4ccc(O)cc4CC[C@H]3[C@@H]1CCC2=O | -28.9 | 8.85 | 3.07 | -10.4 | 1.51
